{
  "source": "paper PMC7819943",
  "about": "“Rice protein-binding microarrays: a tool to detect cis-acting elements near promoter regions in rice”",
  "note": "This is one part of the list.",
  "data": [
    {"molecular_target": "T1, OsWOX13 (Oryza sativa, UniProt Q5QMM3 1-267)", "T1 sequence": "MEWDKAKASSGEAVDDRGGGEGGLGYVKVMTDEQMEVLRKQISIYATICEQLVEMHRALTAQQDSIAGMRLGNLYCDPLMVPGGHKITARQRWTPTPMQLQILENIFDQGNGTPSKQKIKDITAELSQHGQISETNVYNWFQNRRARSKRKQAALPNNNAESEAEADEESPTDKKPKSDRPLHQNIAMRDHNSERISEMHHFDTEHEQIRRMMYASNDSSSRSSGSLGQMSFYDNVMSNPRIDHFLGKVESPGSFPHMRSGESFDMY", "assay": "protein-binding microarray (RPBM); PBS, 2% BSA, 51.3 ng/ul salmon testes DNA, 50 uM zinc acetate, 200 nM TF, 25 C, 1 h; high values mean tight binding", "details": "protein: recombinant; tags: N-terminal polyhistidine and DsRed monomer fusion (pET32a); label: CyDye5-dUTP incorporated in the synthesized complementary strand; 3' TTTTT single-stranded linker to array surface; dsDNA, one strand shown", "in_short": "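For the binding signal, per-feature fluorescence intensity was read in arbitrary units on an Axon 4000B scanner. Before scanning, a 2% BSA-blocked custom Agilent array made double-stranded with Cy5-dUTP was washed after 1 h at 25 °C with 200 nM protein and 50 µM zinc acetate. The proteins were Ni–NTA-purified transcription factors with N-terminal polyhistidine and DsRed fusions, expressed in E. coli BL21-CodonPlus.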", "values": [
      {"sequence": "CCATTCAGTCTTGTGCTTGATTTGACATGGATCGGATGCTCGGAGTCACCTAGTGCAG", "binding signal": "7740 fluorescence intensity (a.u.)"},
      {"sequence": "AATCAAATTGACACGAGCAAGAAAACCGCACAAGTTAGTACGGAGTCACCTAGTGCAG", "binding signal": "19100 fluorescence intensity (a.u.)"},
      {"sequence": "TGAGATTAACAAATAAGTCACTACGTTGCTTACCACTGAACGGAGTCACCTAGTGCAG", "binding signal": "6940 fluorescence intensity (a.u.)"},
      {"sequence": "GGTCTAATTGATTGTTTGTCGTCAGAAAAGAAAATCTTATCGGAGTCACCTAGTGCAG", "binding signal": "28000 fluorescence intensity (a.u.)"},
      {"sequence": "CGTATGATTAGCTGAAATAACCAACGTTTCAAAAGTAGTACGGAGTCACCTAGTGCAG", "binding signal": "15600 fluorescence intensity (a.u.)"},
      {"sequence": "TTTGATTTTAGATAATAACAGAGAAAACATTCCTTGTGGTCGGAGTCACCTAGTGCAG", "binding signal": "28800 fluorescence intensity (a.u.)"},
      {"sequence": "CACTTTGATTATGATGAGATCTTTATTGTCTGTTACCTGGCGGAGTCACCTAGTGCAG", "binding signal": "41100 fluorescence intensity (a.u.)"},
      {"sequence": "GAATCTATTGAGCCTAATTAATCCATGATTAGCCTATGTGCGGAGTCACCTAGTGCAG", "binding signal": "7730 fluorescence intensity (a.u.)"},
      {"sequence": "CTAGACTTAAATTGGAGAGAATGCATGACAGCACACCACACGGAGTCACCTAGTGCAG", "binding signal": "21600 fluorescence intensity (a.u.)"},
      {"sequence": "ATGATTGGAGTGGGGCCATAAAATGATGAACCTGAAGTCTCGGAGTCACCTAGTGCAG", "binding signal": "20400 fluorescence intensity (a.u.)"},
      {"sequence": "CAGTTGTGATGATAATTGTGTTATTTATGTGAGGCACGAGCGGAGTCACCTAGTGCAG", "binding signal": "9030 fluorescence intensity (a.u.)"},
      {"sequence": "AATTAATTGAACTTGCAACCTTAATTTAGATTGTATAAGTCGGAGTCACCTAGTGCAG", "binding signal": "30100 fluorescence intensity (a.u.)"},
      {"sequence": "TATGATAGGTAGGACCAGATATTAATAGTATAGTAAGCAACGGAGTCACCTAGTGCAG", "binding signal": "6970 fluorescence intensity (a.u.)"},
      {"sequence": "CTGACAATCACACACACGACAATGCACGCACGCGCACAACCGGAGTCACCTAGTGCAG", "binding signal": "3700 fluorescence intensity (a.u.)"},
      {"sequence": "GATATTCAATCACCACATATGCCTTGTTTATTAGTATTACCGGAGTCACCTAGTGCAG", "binding signal": "14400 fluorescence intensity (a.u.)"},
      {"sequence": "CTGTAATTTGGGATGATAATATTCTCTCCAAGAGCGCCCACGGAGTCACCTAGTGCAG", "binding signal": "24700 fluorescence intensity (a.u.)"},
      {"sequence": "AACTTGCATACCAGTGGAATTCTTCAGGCTGGTCATGGAGCGGAGTCACCTAGTGCAG", "binding signal": "65500 fluorescence intensity (a.u.)"},
      {"sequence": "TTTTAATGAAACTAATTTTGTGTTGTAGAAATTGCTAAACCGGAGTCACCTAGTGCAG", "binding signal": "5890 fluorescence intensity (a.u.)"},
      {"sequence": "GAGTCCATCGTAAACAGCCAAGATTGGATCGCTACCAATGCGGAGTCACCTAGTGCAG", "binding signal": "3150 fluorescence intensity (a.u.)"},
      {"sequence": "CCAAACAGATTGAACTCGACGATTGGACGAATACGGCGATCGGAGTCACCTAGTGCAG", "binding signal": "58900 fluorescence intensity (a.u.)"},
      {"sequence": "ATAGTTTATTTTATTTTAATTTGCCCTCTCTTAGAATTGACGGAGTCACCTAGTGCAG", "binding signal": "4810 fluorescence intensity (a.u.)"},
      {"sequence": "GCCCCAAAATTGATTGAAGTTTGCGAACGGTGGAAGAAGACGGAGTCACCTAGTGCAG", "binding signal": "33100 fluorescence intensity (a.u.)"},
      {"sequence": "TATGAATTGGCTATCAGATTGGTTATAAATAAATTGGAGCCGGAGTCACCTAGTGCAG", "binding signal": "22600 fluorescence intensity (a.u.)"},
      {"sequence": "TAATAATAATAATAATAATAATAATAATAACACATCGCACCGGAGTCACCTAGTGCAG", "binding signal": "4120 fluorescence intensity (a.u.)"},
      {"sequence": "ACCGCGGTAACCACGTGATTATCATGAAAATCACACGGTTCGGAGTCACCTAGTGCAG", "binding signal": "11300 fluorescence intensity (a.u.)"},
      {"sequence": "ACTTAATTAATTATATGCTAAAGCCCAGTCAATTTGCCTTCGGAGTCACCTAGTGCAG", "binding signal": "47700 fluorescence intensity (a.u.)"},
      {"sequence": "GCTGTGTTTGAATTAATTGATGGACAAATGAAACACAAAACGGAGTCACCTAGTGCAG", "binding signal": "30400 fluorescence intensity (a.u.)"},
      {"sequence": "GTCAAATCATGGCGTAATTGGGCTTAAAAGATTCGTCTCGCGGAGTCACCTAGTGCAG", "binding signal": "30800 fluorescence intensity (a.u.)"},
      {"sequence": "GGTATTAACGTATGATTAATTGAGTTTCAATTATTACAAACGGAGTCACCTAGTGCAG", "binding signal": "30300 fluorescence intensity (a.u.)"},
      {"sequence": "AGATTGACAGAGTGGGTCTGTCTATAAGAATGAAGGATGTCGGAGTCACCTAGTGCAG", "binding signal": "19800 fluorescence intensity (a.u.)"},
      {"sequence": "TATAATTACATTGTAACTGTATTGTAAATACATTTTAATTCGGAGTCACCTAGTGCAG", "binding signal": "5830 fluorescence intensity (a.u.)"},
      {"sequence": "AATTAACCTAATTAGATGGATATATCCATTATCCCAAACACGGAGTCACCTAGTGCAG", "binding signal": "31400 fluorescence intensity (a.u.)"},
      {"sequence": "GCGAATTAGCAATCTCTTAACCTGGCAGCCATATCGCCCGCGGAGTCACCTAGTGCAG", "binding signal": "8850 fluorescence intensity (a.u.)"},
      {"sequence": "CATAAATAAATTAGTTCCCGGCTCAGAATAAATCCAGTCTCGGAGTCACCTAGTGCAG", "binding signal": "13700 fluorescence intensity (a.u.)"},
      {"sequence": "AAATTAAAATTGATCGAAATTGGGAACAAATTAAGCCAGACGGAGTCACCTAGTGCAG", "binding signal": "21600 fluorescence intensity (a.u.)"},
      {"sequence": "ATAGATTTGATACTGAAATTGCTCCTATCTACCACGGCTTCGGAGTCACCTAGTGCAG", "binding signal": "22900 fluorescence intensity (a.u.)"},
      {"sequence": "ACTTATCACCAATTATATGAACTAAACATAGCCTTAGAGACGGAGTCACCTAGTGCAG", "binding signal": "3630 fluorescence intensity (a.u.)"},
      {"sequence": "TAATCTGTGATGATGGATTCTCGTTAAGCATATGTTCTTTCGGAGTCACCTAGTGCAG", "binding signal": "5830 fluorescence intensity (a.u.)"},
      {"sequence": "CTTTGACTAGTAGAATTGTAGTATGGATACGGATCGGGAGCGGAGTCACCTAGTGCAG", "binding signal": "3300 fluorescence intensity (a.u.)"},
      {"sequence": "TTTATAATTGGCTTGTTCGATGCAACTGTTTGAGCTGCATCGGAGTCACCTAGTGCAG", "binding signal": "27200 fluorescence intensity (a.u.)"},
      {"sequence": "AATACATTAATTATAATAATTACCGATATATGTTACGCCCCGGAGTCACCTAGTGCAG", "binding signal": "39500 fluorescence intensity (a.u.)"},
      {"sequence": "ATTTCTAATTAGCAATGCTAAGAGACCACTATTAACAAACCGGAGTCACCTAGTGCAG", "binding signal": "10400 fluorescence intensity (a.u.)"}
    ]}
  ]
}
